# Reference: PubChem BioAssay AID588342 (National Center for Advancing Translational Sciences (NCATS), 2011)
# Screen size: about 360,000 compounds; about 25,000 (6.9%) were called active. The shares of active, inactive and inconclusive entries below differ from those in the screen. Calls come from the whole dose curve; as a rule, active = well fitted inhibition curve with a large enough effect; inconclusive = small, poorly fitted or top-dose-only effect; inactive = flat fitted curve, though single readings scatter. Potencies beside an inconclusive call are fits to weak or partial responses and may not hold up.
# Biological target: Luciferin 4-monooxygenase (Photinus pyralis) (UniProt P08659)
# UniProt P08659, sequence (P08659 whole entry, looked up): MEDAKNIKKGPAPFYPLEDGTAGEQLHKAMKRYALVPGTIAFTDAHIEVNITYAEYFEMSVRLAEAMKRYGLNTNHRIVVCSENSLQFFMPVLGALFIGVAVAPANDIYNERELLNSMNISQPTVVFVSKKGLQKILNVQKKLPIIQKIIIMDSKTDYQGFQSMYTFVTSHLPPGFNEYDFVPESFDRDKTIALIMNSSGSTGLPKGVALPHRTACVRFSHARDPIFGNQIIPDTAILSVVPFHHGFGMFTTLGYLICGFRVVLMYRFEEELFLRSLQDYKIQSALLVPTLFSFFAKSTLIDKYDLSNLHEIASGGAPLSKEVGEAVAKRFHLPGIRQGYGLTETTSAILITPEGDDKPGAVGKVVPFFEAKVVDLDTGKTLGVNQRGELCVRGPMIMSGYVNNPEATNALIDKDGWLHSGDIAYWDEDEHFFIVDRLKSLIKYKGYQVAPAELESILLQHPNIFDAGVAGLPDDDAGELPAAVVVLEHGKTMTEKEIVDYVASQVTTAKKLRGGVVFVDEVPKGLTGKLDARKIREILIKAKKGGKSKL
# Assay: qHTS profiling assay for firefly luciferase inhibitor/activator using purifed enzyme and Km concentrations of substrates (counterscreen for miR-21 project); note: nearly all actives have a fitted effect of over 55% in size;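 for activity change, negative = inhibition: plate controls were vehicle for no effect and reference inhibitor for full effect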
# Conditions: purified FLuc, luminescence inhibition; series mostly up to 57.5 µM; activity change, negative = inhibition: at the top concentration
# How it was run: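 Biochemical qHTS of compounds, final roughly 60 µM downward over six points, against 10 nM purified firefly luciferase using Km concentrations of substrates (10 uM D-luciferin, 10 uM ATP) in Tris acetate pH 7.5 buffer; luminescence output.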
# Potency is the fitted concentration of half-maximal effect; tags give direction and shape of the fitted curve.
Compound,"activity change, negative = inhibition",Potency
CCOC(=O)c1ccc(NC(=O)CN(c2ccc(C)cc2)S(=O)(=O)c2c(C)noc2C)cc1,inactive: 1.37%,
Cc1[nH]n(-c2ccccc2)c(=O)c1/C=C1\C=NN=C1c1ccccc1,,active: 12 µM
Cc1nc2c(C(=O)NCCc3ccc(Cl)cc3)cnn2c(C)c1Cc1c(F)cccc1Cl,inactive: 0.117%,
Nc1nc(-c2ccc3c(c2)CCC(=O)N3)cs1,,"inconclusive: 26.9 µM [inhibitor, single point]"
O=C(NCc1ccccc1Br)c1ccc2nc(N3CCCCC3)sc2c1,,"inconclusive: 15.1 µM [inhibitor, partial curve]"
C/C(=N\Nc1nccnc1Cl)c1ccc(O)cc1,,"inconclusive: 30.1 µM [inhibitor, single point]"
COc1ccc(S(=O)(=O)NC(C)C(=O)N2CCCCCC2)cc1 (centres undefined),inactive: 1.17%,
CN1c2ccccc2C(O)=C(C(=S)Nc2ccc(F)c(Cl)c2)S1(=O)=O,,"inconclusive: 26.9 µM [inhibitor, single point]"
Fc1ccc(-c2nnc(CSc3nnc4ccccn34)o2)cc1,,"inconclusive: 30.1 µM [inhibitor, partial curve, poor fit]"
CC(=O)/C(=C/N(C)C)C(=O)Nc1ccc(Cl)cc1Cl,,"inconclusive: 37.9 µM [inhibitor, single point]"
CC(C(=O)c1ccc(Br)cc1)[n+]1cccc2ccccc21 (centres undefined),inactive: 2.4%,
CCn1c(=O)cc(SCC(=O)Nc2ccc3c(c2)OCCO3)c2ccccc21,,"inconclusive: 37.9 µM [inhibitor, single point]"
Fc1ccc(-c2cc(C(F)(F)F)nc(NCc3cccs3)n2)cc1,inactive: -2.11%,
CCOc1ccc(C(=O)NCC(C)C)cc1,,"inconclusive: 30.1 µM [inhibitor, partial curve, poor fit]"
COC(=O)c1ccc(OCC(=O)c2ccccc2OC)cc1,,"inconclusive: 16.9 µM [inhibitor, partial curve]"
CCN(CC)S(=O)(=O)c1ccc(OC)c(NC(=O)C(C)Oc2ccc3c(C)cc(=O)oc3c2)c1 (centres undefined),inactive: 2.51%,
O=C(NCC1CCCO1)C(=O)N/N=C\c1ccc2c(c1)OCO2 (centres undefined),,"inconclusive: 23.9 µM [inhibitor, single point]"
CN(C)S(=O)(=O)c1cccc(NC(=O)COC(=O)/C=C/c2cccs2)c1,,"inconclusive: 23.9 µM [inhibitor, partial curve, poor fit]"
O=C(c1cc2ccccc2oc1=O)N(Cc1ccccc1F)C1CCS(=O)(=O)C1 (centres undefined),,active: 16.9 µM
C=C(C)CSc1nc(N)c2c(C)c(C)sc2n1,,"inconclusive: 1.35 µM [inhibitor, partial curve, poor fit]"
CCc1ccc(NC(=O)Cc2cn(C)c3ccccc23)cc1,,"inconclusive: 16.9 µM [inhibitor, partial curve]"
O=C(Nc1ccccc1C(=O)NCCc1ccc(O)cc1)c1ccco1,,"inconclusive: 23.9 µM [inhibitor, partial curve, poor fit]"
O=c1c2ccccc2[nH]c2ccc(O)cc12,,"inconclusive: 26.9 µM [inhibitor, single point]"
COc1c(OC(C)=O)ccc(/C=C/c2ccc3ccccc3n2)c1[N+](=O)[O-],,active: 1.51 µM
Clc1nssc1=Nc1nncs1,,"inconclusive: 8.49 µM [inhibitor, single point]"

Compound,"activity change, negative = inhibition",Potency
CN(C(=O)c1cc(-c2ccccc2)on1)C1CCCCC1,,active: 8.49 µM
Cc1ccc(NC(=O)c2cnc(SCC(=O)NCC3CCCO3)n(C)c2=O)cc1 (centres undefined),,active: 9.53 µM
CN=C1S/C(=C\c2ccc(OCC(=O)OC)c(OC)c2)C(=O)N1C,,active: 16.9 µM
Cc1ccc(SC[C@H](c2ccccc2)N2CCN(C)CCC2=O)cc1,,active: 15.1 µM
O=C(NCc1cccs1)c1ccc2c(c1)N(Cc1ccccc1Cl)C(=O)c1ccccc1S2,inactive: 0.926%,
O=C(COC(=O)/C=C/c1ccccc1[N+](=O)[O-])Nc1ccc(OC(F)F)cc1,inactive: 4.11%,
CC(C)Cn1c(=O)c2ccccc2n2c(CCC(=O)NCc3ccccc3Cl)nnc12,inactive: -2.78%,
COc1ccc(NC2=CC(=O)N(C)C2=O)cc1,,"inconclusive: 23.9 µM [inhibitor, partial curve]"
O=C(Nc1cc(S(=O)(=O)N2CCCCC2)ccc1O)c1ccccc1NS(=O)(=O)c1ccc(F)cc1,,"inconclusive: 37.9 µM [inhibitor, partial curve, poor fit]"
O=C(NC1CCCC1)C1CCN(C(=O)c2cc(Cl)ccc2Cl)CC1,inactive: 0.491%,
COC(=O)c1ccc(COc2ccccc2/C=C/C(=O)c2ccc(OCC(=O)O)cc2)cc1,,active: 5.36 µM
COc1ccc(CNc2ccccn2)c(O)c1,,"inconclusive: 30.1 µM [inhibitor, partial curve, poor fit]"
Cc1cc(C)cc(Nc2cc(-c3ccccc3)nc(C)n2)c1,inactive: -16.6%,
O=C(CNS(=O)(=O)c1cccs1)Nc1ccc2c(c1)OCCO2,,"inconclusive: 23.9 µM [inhibitor, partial curve]"
S=c1[nH]nc(Nc2ccc(Cl)cc2)s1,,"inconclusive: 30.1 µM [inhibitor, single point]"
C=CCn1c(SCC(=O)Nc2ccc3c(c2)CCC3)nnc1-c1cccs1,,"inconclusive: 21.3 µM [inhibitor, partial curve, poor fit]"
O=C(Cc1csc(-c2cccc(Cl)c2)n1)Nc1cccc(S(=O)(=O)NC2=NCCC2)c1,,"inconclusive: 37.9 µM [inhibitor, single point]"
O=C(CC1CCCC1)Nc1cccc(Br)c1,,"inconclusive: 37.9 µM [inhibitor, single point]"
O=C(/C=C/Nc1ccc(Oc2ccccc2)cc1)c1ccco1,,active: 0.849 µM
COc1cccc(NC(=O)COC(=O)Cc2ccccc2[N+](=O)[O-])c1,,"inconclusive: 37.9 µM [inhibitor, partial curve, poor fit]"
CC(C)CN1C(=O)c2ccc(C(=O)Nc3nccs3)cc2C1=O,,active: 6.75 µM
CC(C)S(=O)(=O)C1=NSC2=NC(=O)/C(=C\c3ccc(-c4cccc(C(=O)O)c4)o3)C(=N)N21,,active: 13.5 µM
CC(C)(C)c1ccc(OCCC(=O)Nc2ccc(N3CCOCC3)cc2N2CCOCC2)cc1,,"inconclusive: 19 µM [inhibitor, partial curve]"
Cc1ccc(NC(=O)CCn2cccn2)cc1Cl,inactive: -7.5%,
CCOc1ccc(CCNC(=O)CN2C(=O)COc3ccc(S(=O)(=O)N4CCC(C)CC4)cc32)cc1,inactive: -6.43%,

Compound,"activity change, negative = inhibition",Potency
COc1ccc(NC(=O)c2ccccc2SC)cc1,,"inconclusive: 37.9 µM [inhibitor, single point]"
Cc1nn(CC(=O)NCCc2ccc(Cl)cc2)c(=O)c2cc3cc(F)ccc3n12,inactive: -2.05%,
COc1ccc(CC2S/C(=N/N=C/c3ccccc3O)NC2=O)cc1 (centres undefined),,"inconclusive: 19 µM [inhibitor, partial curve, poor fit]"
O=C(CN1CCCC1)Nc1ccc(Br)cc1[N+](=O)[O-],,"inconclusive: 26.9 µM [inhibitor, partial curve, poor fit]"
CSc1ccccc1NC(=O)COc1ccccc1Cl,,"inconclusive: 23.9 µM [inhibitor, single point]"
COCCn1c(C)cc(/C=C2/SC(=O)N(C(C)C(=O)OC)C2=O)c1C (centres undefined),,active: 2.39 µM
CC1=C(C(=O)Nc2ccccn2)C(c2ccc(N(C)C)cc2)n2ncnc2N1 (centres undefined),inactive: -2.39%,
COc1ccc(CC(=O)c2c(O)cc(O)cc2O)cc1OC,,"inconclusive: 19 µM [inhibitor, partial curve, poor fit]"
O=c1c2sc(-c3ccccc3)cc2nc2n1CCC2,,active: 1.35 µM
COc1ccc(CNC(=O)Cn2nc(C)c3nn(-c4ccc(Cl)cc4)c(C)c3c2=O)cc1,inactive: -4.58%,
O=C(CCSc1ccc(Br)cc1)c1ccc(O)cc1,,"inconclusive: 26.9 µM [inhibitor, single point]"
CCOc1ccc(NC(=O)c2cn(-c3ccc(OCC)cc3)c(=O)c3cc(OC)c(OC)cc23)cc1,inactive: 8.18%,
CCc1ccc(-c2ccc(C(=O)C(F)(F)F)[nH]2)cc1,,active: 2.13 µM
C=CCN1N=C(/C=C/c2ccc(OC)cc2)CCC1=O,,"inconclusive: 26.9 µM [inhibitor, single point]"
CC1CC(C)(C)CC2(C1)NC(=O)N(CC(=O)Nc1ccc(N3CCCCC3)cc1)C2=O (centres undefined),,"inconclusive: 23.9 µM [inhibitor, partial curve]"
CCOC(=O)C1CCCN(C(=O)c2ccc3c(=O)n(CCOC)c(=S)[nH]c3c2)C1 (centres undefined),inactive: -3.08%,
Cc1ccc(CN(C(=O)CNC(=O)c2cccs2)C(C(=O)NCC2CCCO2)c2ccccc2)cc1 (centres undefined),inactive: 1.26%,
Cc1ccc(NC(=S)N2CCCCCC2)c(C)c1,,"inconclusive: 21.3 µM [inhibitor, partial curve]"
N#Cc1ccccc1COC(=O)c1ccc(Br)o1,,"inconclusive: 26.9 µM [inhibitor, partial curve, poor fit]"
O=C(COC(=O)C1CCN(c2ccc(C(F)(F)F)cn2)CC1)c1ccc(F)cc1,,"inconclusive: 37.9 µM [inhibitor, partial curve, poor fit]"
O=C(O)/C=C/C(=O)NNc1ncnc2ccccc12,,"inconclusive: 21.3 µM [inhibitor, single point]"
Cc1cccc(NC(=O)c2ccccc2NC(=O)c2ccccc2)n1,,"inconclusive: 37.9 µM [inhibitor, single point]"
CC(C)c1ccc(C(=O)CSc2n[nH]c(-c3ccncc3)n2)cc1,,active: 15.1 µM
O=C(NC1CCCC1)c1c[nH]c2ccc(S(=O)(=O)Nc3cccc(C(F)(F)F)c3)cc2c1=O,,"inconclusive: 6.01 µM [inhibitor, partial curve]"
